Here are results for 172 sequences from article PMC6212790.

Some of the results follow. At the low end of the ranking the order means little.

The target in this test is T1, GST-Rok (full length) (UniProt O34857).
T1 sequence: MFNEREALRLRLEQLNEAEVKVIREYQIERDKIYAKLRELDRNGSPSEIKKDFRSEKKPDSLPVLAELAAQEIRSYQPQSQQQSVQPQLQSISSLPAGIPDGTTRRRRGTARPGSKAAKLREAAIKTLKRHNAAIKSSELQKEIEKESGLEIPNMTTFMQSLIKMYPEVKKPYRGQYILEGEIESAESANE
Put plainly: protein binding microarray.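 Further: rank score from −0.5 (least bound) to 0.5 (best bound).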 The following applies: Rok is a gene silencer of Bacillus subtilis; high values mean tight binding; most listed sequences are background and not binding sites; double strand, one strand shown.
The sequence GCAGAGGC gave a binding signal of -0.347 E-score.

CCAAGGGG: the binding signal was -0.397 E-score.

Turning to GCGAGAGC, the binding signal was -0.342 E-score.

In turn, CCAGTTAA returned a binding signal of -0.0326 E-score.

In turn, AGTTGTGG came in with a binding signal of 0.0448 E-score.

Sequence AACCCCAA displayed a binding signal of -0.227 E-score.

In turn, AATCCTGC returned a binding signal of -0.0557 E-score.

Take GTCAATTA: the binding signal stood at 0.194 E-score.

For GACAGCGC, the binding signal was -0.0411 E-score.

ACTCCTTC: the binding signal was -0.163 E-score.

Take GAACCTGA: the binding signal came to 0.0684 E-score.

ATAAGTCC displayed a binding signal of 0.051 E-score.

Turning to CCCGTCCG, the binding signal is -0.279 E-score.

In the case of CGGCCCCG, the binding signal was -0.307 E-score.

Regarding CTTGCTTA, the binding signal was -0.138 E-score.

Sequence CGAGAGCA yielded a binding signal of -0.154 E-score.

As to GGGCGTGA, the binding signal is -0.34 E-score.

With AACAGTAC, the binding signal turned out to be 0.286 E-score.

ATCGCACC registered a binding signal of -0.0112 E-score.

The sequence CCCATTGA had a binding signal of -0.11 E-score.

Take ATGCCGTG: the binding signal is -0.134 E-score.

In turn, AGAATCCC had a binding signal of -0.079 E-score.

AGGACCTG returned a binding signal of -0.179 E-score.

As for AGTATCGA, the binding signal is 0.237 E-score.

Sequence GGCTTCGA yielded a binding signal of -0.207 E-score.

As to AGCTCTGC, the binding signal is -0.204 E-score.

The sequence AGACTTCA came in with a binding signal of -0.0895 E-score.

CCTTGAAA: the binding signal is -0.174 E-score.

In turn, ACGTGTCA showed a binding signal of -0.0965 E-score.

As for CGGAGACC, the binding signal was -0.17 E-score.

Sequence ATCCTTGG gave a binding signal of 0.0291 E-score.

Sequence ATGTAGCC had a binding signal of 0.0892 E-score.

In turn, ACCACGCC came in with a binding signal of -0.0985 E-score.

Sequence CGGGGGGC returned a binding signal of -0.45 E-score.

For the sequence CTTCAAGA, the binding signal is -0.197 E-score.

The sequence CATGCATG showed a binding signal of -0.0782 E-score.

In turn, GACTACCC came in with a binding signal of -0.0308 E-score.

For GAGGTGCC, the binding signal was -0.0909 E-score.

For CCCATGCG, the binding signal is -0.324 E-score.

Sequence AAACTATT registered a binding signal of 0.458 E-score.

In the case of CGAATAAA, the binding signal turned out to be 0.062 E-score.

Take ACACTTTA: the binding signal came to 0.0953 E-score.

In turn, AGAATTCA displayed a binding signal of 0.0872 E-score.

Regarding CTCGCCAA, the binding signal was -0.281 E-score.

As for AATATCGT, the binding signal was 0.23 E-score.

Take ATCTAAGA: the binding signal was found to be 0.146 E-score.

Turning to CGGGTTCC, the binding signal was -0.165 E-score.

Regarding GGAGATTA, the binding signal came to 0.0692 E-score.

Sequence CATGTCGG displayed a binding signal of -0.134 E-score.

For ATGGTGCC, the binding signal is -0.179 E-score.

TATCCAGA had a binding signal of -0.0542 E-score.

Regarding GGACCCAC, the binding signal is -0.274 E-score.

CGAGATGC displayed a binding signal of -0.104 E-score.

As for CGTAGCAG, the binding signal is -0.0243 E-score.

CCTACCAA: the binding signal was -0.17 E-score.

In turn, AGTGCCTG displayed a binding signal of -0.284 E-score.

On to AGATTTCG, for which the binding signal worked out at 0.175 E-score.

Sequence GGTGTGGA registered a binding signal of -0.0962 E-score.

In turn, CGGTCATC displayed a binding signal of 0.0156 E-score.

Regarding ATTCAGGA, the binding signal was -0.0702 E-score.

The sequence CTTGCGGC showed a binding signal of -0.19 E-score.

ATACCGCA showed a binding signal of 0.17 E-score.

For the sequence GCCTCTCA, the binding signal was -0.227 E-score.

Sequence CTATCTGA gave a binding signal of 0.068 E-score.

In turn, CATCGGAA yielded a binding signal of -0.195 E-score.

With AGATGTCA, the binding signal came to 0.114 E-score.

CAAGGATC displayed a binding signal of -0.0884 E-score.

With CGGTACCA, the binding signal turned out to be 0.125 E-score.

Take GCGGGATA: the binding signal was -0.0361 E-score.

The sequence CGCGACGC gave a binding signal of -0.125 E-score.

With AGTGCCCG, the binding signal is -0.139 E-score.

For the sequence CTGACGAC, the binding signal is -0.0515 E-score.

As to AGCCTTAG, the binding signal is -0.181 E-score.

ACGAAGAT registered a binding signal of 0.201 E-score.

For the sequence ATACAGGG, the binding signal was -0.142 E-score.

AATAGAAG registered a binding signal of 0.152 E-score.

CCCCCGGG: the binding signal was -0.411 E-score.

The sequence CATGGCAC displayed a binding signal of 0.000675 E-score.

The sequence GCATTAAA registered a binding signal of -0.0493 E-score.

CTGGGTCA: the binding signal was -0.129 E-score.

ACAGCGGA registered a binding signal of 0.135 E-score.

In turn, CGAAAGCC registered a binding signal of -0.225 E-score.

As for CATTGCCA, the binding signal is -0.068 E-score.

With CGGGGTGC, the binding signal is -0.264 E-score.

ACAGCCCG came in with a binding signal of -0.11 E-score.

With CTGACGGC, the binding signal was -0.319 E-score.

Sequence AACCTGTC registered a binding signal of -0.0942 E-score.

On to ACCGGACG, for which the binding signal is -0.302 E-score.

ACCGATAA: the binding signal turned out to be 0.187 E-score.

As for CACATTAA, the binding signal was found to be 0.187 E-score.

TATACTAA showed a binding signal of 0.364 E-score.

In turn, ATTCCCGG gave a binding signal of -0.171 E-score.

ATAAATGA came in with a binding signal of 0.231 E-score.

Sequence CACGTGGG displayed a binding signal of -0.127 E-score.

GAAAATAC: the binding signal turned out to be 0.351 E-score.

GTAGTCCA came in with a binding signal of 0.0665 E-score.

TAACCAAA returned a binding signal of 0.0828 E-score.

Sequence CCACAGTA yielded a binding signal of -0.103 E-score.

The sequence CCACTCTA yielded a binding signal of 0.0213 E-score.

In turn, ATGCTCTG returned a binding signal of -0.146 E-score.

CTTTATAC came in with a binding signal of 0.226 E-score.

As to CTGTACGC, the binding signal was -0.225 E-score.

Turning to ACGTTACC, the binding signal was found to be 0.0183 E-score.

For ACCAGACC, the binding signal was -0.00906 E-score.

As for CCTTTTTA, the binding signal worked out at 0.17 E-score.

CTGCCTAA gave a binding signal of 0.0586 E-score.

Sequence CGCACAAA yielded a binding signal of -0.0539 E-score.

The sequence CAAACGTG yielded a binding signal of -0.0474 E-score.

As for CCTTCAAA, the binding signal was -0.204 E-score.

The sequence ACCTCGAC registered a binding signal of -0.158 E-score.

With ATACCTTG, the binding signal is -0.135 E-score.

With CAGCGATC, the binding signal was -0.177 E-score.

On to AATTGGGG, for which the binding signal was -0.079 E-score.

GCCACAGC yielded a binding signal of -0.334 E-score.

The sequence CGATCGAG came in with a binding signal of -0.147 E-score.

In turn, ATGTCGCA returned a binding signal of -0.124 E-score.

The sequence CAAGAGAA showed a binding signal of -0.00719 E-score.

The sequence AAGCCACT yielded a binding signal of -0.238 E-score.

Sequence AAAATGGT gave a binding signal of -0.0689 E-score.

Regarding ACGTCAAT, the binding signal came to 0.212 E-score.

ACTCCGAT: the binding signal was -0.0845 E-score.

CTACGCAC registered a binding signal of -0.0795 E-score.

For AGTCGGGC, the binding signal is -0.224 E-score.

Turning to GTGTTCCA, the binding signal is -0.244 E-score.

In turn, AGCCTGTG returned a binding signal of -0.107 E-score.

GTACTCGA: the binding signal was found to be 0.0628 E-score.

GCAGCCGA: the binding signal is -0.35 E-score.

The sequence ATTTCGGC displayed a binding signal of -0.0874 E-score.

Sequence GGGAGCAC yielded a binding signal of -0.362 E-score.

For ACATAGGC, the binding signal was 0.0845 E-score.

With CCATAGGA, the binding signal is -0.0149 E-score.

Regarding CCCCCCTC, the binding signal was -0.446 E-score.

In turn, AATTGTTG had a binding signal of 0.139 E-score.

Consider GAGGCCGC, for which the binding signal is -0.383 E-score.

Turning to AGCCATAG, the binding signal is -0.0591 E-score.

CCCAGAAC came in with a binding signal of -0.13 E-score.

As to TAGAATAA, the binding signal worked out at 0.272 E-score.

Turning to TCGGGAGA, the binding signal came to 0.0889 E-score.

ACATGGTC yielded a binding signal of -0.0838 E-score.

With CCTGGGGC, the binding signal is -0.409 E-score.

CTGATAAG displayed a binding signal of 0.0753 E-score.

Regarding GCACGTGA, the binding signal stood at 0.165 E-score.

Regarding ATGAGCGC, the binding signal is -0.127 E-score.

As to CAGAGCAA, the binding signal was 0.00217 E-score.

For the sequence CCCCGTCA, the binding signal is -0.266 E-score.

GTTGACAA had a binding signal of 0.0497 E-score.

Sequence CGATATTA came in with a binding signal of 0.213 E-score.

In the case of CTTGGGGA, the binding signal is -0.0863 E-score.

As for CAGCCCGG, the binding signal was -0.158 E-score.

Turning to CACAGACC, the binding signal is -0.211 E-score.

In the case of CTTATTCA, the binding signal was -0.00685 E-score.

As for CTCGTAAA, the binding signal amounted to 0.12 E-score.

The sequence AACTGTGC came in with a binding signal of -0.00787 E-score.

With ACCATGAC, the binding signal is -0.00323 E-score.

CGTTGTCA: the binding signal is 0.09 E-score.

Turning to AATACCCT, the binding signal was -0.0197 E-score.

As to GGTCACAA, the binding signal was -0.0273 E-score.

Sequence CCAAAGAG yielded a binding signal of -0.188 E-score.

Regarding AGCCTCCA, the binding signal is -0.215 E-score.

Consider AATTGTCG, for which the binding signal was found to be 0.0786 E-score.

For the sequence ATCACCAT, the binding signal was 0.0861 E-score.

Sequence CTTGCTCC gave a binding signal of -0.194 E-score.

Regarding CATTCTGC, the binding signal is -0.127 E-score.

Turning to ACTGCCCC, the binding signal is -0.271 E-score.

With TAGTTTAA, the binding signal is 0.33 E-score.

For the sequence CTGTCTAC, the binding signal came to 0.15 E-score.

For CACGAGTC, the binding signal is -0.137 E-score.

ATGTAGCG had a binding signal of 0.307 E-score.

Sequence AGAGCCCT displayed a binding signal of -0.253 E-score.

CACGGTCG returned a binding signal of -0.121 E-score.

Regarding CTGGGGTA, the binding signal is -0.113 E-score.

For the sequence GATTACAA, the binding signal was 0.124 E-score.
